Test results published in FireProtDB (doi:10.1194/jlr.m002113).
“And” between values parts separate entries of the source, which are not always exact repeats. Identical values can stand only once.

Conditions: Homo sapiens; for denaturant m value / denaturant midpoint (higher = more stable) / unfolding free energy: 4 °C, Urea; for Tm / unfolding enthalpy (van 't Hoff): Thermal
[1] = pH 7.4, CD, Tris-HCl 10000.0, NaCl 150000.0, reversible: yes
[2] = pH 7.4, CD, sodium phosphate buffer 10000.0, reversible: yes
[3] = pH 7.5, CD, sodium phosphate buffer 10 mM
[4] = pH 7.5, fluorescence, sodium phosphate buffer 10 mM, reversible: yes

Apolipoprotein A-I wild type (letters omitted)
denaturant m value [1]: 1.5 kcal/mol/M and 1.4 kcal/mol/M
denaturant midpoint (higher = more stable) [1]: 2.7 M and 2.5 M
unfolding free energy [1]: 3.9 kcal/mol and 3.3 kcal/mol
Tm [2]: 60 °C and 57 °C
unfolding enthalpy (van 't Hoff) [2]: 33 kcal/mol and 41 kcal/mol
denaturant m value [3]: 1.5 kcal/mol/M and 1.4 kcal/mol/M
denaturant midpoint (higher = more stable) [3]: 2.7 M and 2.5 M
unfolding free energy [3]: 3.9 kcal/mol and 3.3 kcal/mol
Tm [4]: 60 °C and 57 °C
unfolding enthalpy (van 't Hoff) [4]: 33 kcal/mol and 41 kcal/mol
